Test results from PubChem BioAssay AID588855 (National Center for Advancing Translational Sciences (NCATS), 2011).
The whole screen tested about 410,000 compounds, of which about 5,000 (1.2%) were called active. Inconclusive means that the source gave no clear call. Such entries were picked first, then a sample of the others. The call rests on the fitted dose curve; in most records, active means well fitted inhibition curve with a large enough effect; inconclusive means small, poorly fitted or top-dose-only effect; inactive means no such curve, though single readings can be large or run the other way. Potencies of inconclusive entries are doubtful fits and often do not repeat.

Assay: qHTS for Inhibitors of TGF-b; further: nearly all actives have a fitted effect of over 65% in size
Conditions: HepG2 CAGA-GFP TGF-b/SMAD3 reporter, GFP fluorescence, 18 h, TGF-beta stimulated, 500 pg/mL final; series mostly up to 46.1 µM
Method in brief: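 HEPG2 CAGA-GFP cells (1000/well, DMEM with 1% FBS) were pre-incubated 2 h at 37 degrees C, given compound by pin tool, then stimulated with TGF-beta at 500 pg/mL final for 18 h before per-cell GFP fluorescence imaging.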
Potency means the concentration at half of the fitted maximal effect; tags describe the fitted curve by direction and shape.

Structure (SMILES) | Potency
O=C1c2ccccc2C(=O)C1c1nccc2ccccc12 | inactive
Cc1cc(NC(=O)COn2nnc3ccc(S(C)(=O)=O)cc32)ccc1Br | inconclusive: 17.8 µM [inhibitor, single point]
N#Cc1sc2nc(C3CC3)cc(-c3ccccc3)c2c1N | inconclusive: 8.91 µM [inhibitor, partial curve]
CC(C)c1nc2ccc(C(=O)NCc3ccc(F)cc3)cc2o1 | inactive
Cc1ccc(NC(=O)c2ccc(Cl)c(S(=O)(=O)N3CCCC3)c2)nc1 | inconclusive: 25.1 µM [inhibitor, single point]
CC(CC(=O)NC(C)c1ccc2c(c1)OCCO2)c1ccccc1 (stereo unspecified) | inactive
CCOC(=O)/C(C#N)=C1/C=CN(c2ccc(C)cc2)C=N1 | inactive
CCOc1ccc(NC(=O)CSCc2cnn(-c3ccccc3)c2-n2cccc2)cc1 | inconclusive: 20 µM [inhibitor, partial curve, poor fit]
Cc1c(N=C2N=C(NC(=O)Nc3ccc(Cl)cc3)c3ccccc32)c(=O)n(-c2ccccc2)n1C | inconclusive: 3.55 µM [inhibitor, partial curve, poor fit]
Cc1nn(C)c2c1c(-c1ccccc1)cc(=O)n2C(C)C(=O)NCCc1ccc(Cl)cc1 (stereo unspecified) | inconclusive: 17.8 µM [inhibitor, single point]
C/C(N)=C(/C#N)C(=O)CSc1nc(C2CCCCC2)n(-c2ccccc2)n1 | inactive
CC(C)(C)NCCC(O)c1cc(C(F)(F)F)nc2c(C(F)(F)F)cccc12 (stereo unspecified) | inconclusive: 35.5 µM [inhibitor, single point]
CCn1cc(C(=O)NCCCN2CCC(C)CC2)c(=O)c2cc(S(=O)(=O)N(C)C3CCCCC3)ccc21 | inconclusive: 35.5 µM [inhibitor, partial curve, poor fit]
CCOc1ccc(N2CC(C(=O)Nc3ccc(S(=O)(=O)N4CCCC4)cc3)CC2=O)cc1 (stereo unspecified) | inconclusive: 1.41 µM [inhibitor, full curve]
COCCn1c(C2CCCCC2)nc2sc3ccccc3c(=O)c2c1=O | inactive
Cc1cccc(C)c1NC(=O)C[n+]1cc(-c2ccccc2)n2c1CCC2 | inactive
COC1C=CC(CNC(=O)c2cc3c(=O)n4cccc(C)c4nc3n2C)(OC)O1 (stereo unspecified) | inactive
O=C(c1cccs1)N1CCN(S(=O)(=O)c2ccccc2)CC1 | inactive
COc1ccc(-c2nc3ccc(C)cn3c2CC2CCCCC2)cc1OC | inconclusive: 17.8 µM [inhibitor, single point]
O=c1[nH]c(SCCc2ccccc2)nc2c1CCC2 | inactive
CCOC(=O)C1CCN(C(=O)CSc2n[nH]c(-c3ccccc3Cl)n2)CC1 | inconclusive: 35.5 µM [inhibitor, single point]
